# Experimental data taken from publication PMC12136788.
# Some of the results follow.
# B1: chr3:88516089:88516090:+_ENSMUSG00000028060_ENSMUST00000029696|mus_hu|FALSE|FALSE (ssRNA)
# RNA: GGGAGUUCUACAGUCCGACGAUCAUUGACCAAACAGUAGUAAAAUACAAAUAAAACUUUCUUUAUGUCAGAACUGGGGCUAUUCACCUGGAAAAGGCUGACCAGGUCAAAUGUGUAUGGGAACGACCCUGUUAGGAUGCUUUGCAACAGAGGAUUGAGCAUCA
# B2: 53846149_53848618_101_5pUTR_ENSG00000197111_ENST00000546463|human|control|control (ssRNA)
# RNA: GGGAGUUCUACAGUCCGACGAUCCAUUUAAUCCACCUUCAAUCACACCGGUGUCCAUGUCGAGCAGUGUUCUGGGGAGCUGGACUUUGAGUGGUCAAGUCUUUGGUCACUGGUUGGGGGUGAAAGCCAAAAACUGCAGGCGCGCAACAGAGGAUUGAGCAUCA
# B3: 115421974_115422094_2132_CDS_ENSG00000165185_ENST00000337530|human|control|control (ssRNA)
# RNA: GGGAGUUCUACAGUCCGACGAUCGAGGCAGUAAGGGCACUGUUUGUGUCCCCGGGAAUGCUCAUGGUAGAUCUUCCCGUGACACACUCUGGUGGAGCCGCUCCGACUCUCCCGCUUGACGCUGUCCGUCCGGGCAAAGUAGGGCAACAGAGGAUUGAGCAUCA
# B4: 10583388_10583684_1091_CDS_ENSG00000115758_ENST00000405333|human|control|control (ssRNA)
# RNA: GGGAGUUCUACAGUCCGACGAUCAGGAAAGCCACCGCCAAUAUCAAGCAGAUACAUGCUGAAACCAACCUCAGCCCCCAUGUCAAAAACACAGCGGGCAUCAGAGAUUGCCUGCACGAAGGUCUCAGGAUCGGUACAGCCGCUCAACAGAGGAUUGAGCAUCA
# B5: chr5:37680062:37680063:+_ENSMUSG00000029121_ENSMUST00000031004|mus_hu|mus_mus_mus_hu_False|8_18 (ssRNA)
# RNA: GGGAGUUCUACAGUCCGACGAUCUUUGGGUGUAGCUGGUACCUCGUACACAGGACCGUCAUACAUGCCCCUGGAAACCCCUUGCAAUCCAAAAACCUUAUUCCUGAUUUUGACGCGCUGGUAGAGAUGCUCUGGGAACGCCUUCAACAGAGGAUUGAGCAUCA
# B6: chr10:71978566:71978567:-_ENSG00000180817_ENST00000373232|hu_mus|FALSE|FALSE (ssRNA)
# RNA: GGGAGUUCUACAGUCCGACGAUCUAAAGGGUCCUUUGUAGCAAUCUCCAUUUUGGCGUUGGACCAGCGUGGAACCUCAACCACCAUGUGGAACACAUCCUUGUCUGCAUAAAUUGGAACAUCAUGAAAUGGAGAAAUGUACUGCAACAGAGGAUUGAGCAUCA
# B7: chr6:86333760:86333761:-_ENSG00000135316_ENST00000355238|hu_hu|FALSE|FALSE (ssRNA)
# RNA: GGGAGUUCUACAGUCCGACGAUCUUCUUCAAGAAUCUGUUCCUUGGUUUUACUCUUAGGAAUAGAGCCCACAAAAAGCCUAUUGUUGGCAACUGAGAUGCAGACACCAAUAUGUUUUCCAGAACGAAUUUCAUGAUUAUUAUACAACAGAGGAUUGAGCAUCA
# B8: chr11:86132931:86132932:-_ENSMUSG00000034297_ENSMUST00000043624|mus_hu|FALSE|FALSE (ssRNA)
# RNA: GGGAGUUCUACAGUCCGACGAUCUCCAAAAGGUCCAACUGGAUCAUCCUUGAAUUUAUCACUUGGAAGUUGAGGUGGUAAAAACUCUACAUCUUUUUUCUUUGGGAACUUGUAAUACUUCCAGGCUAUAUUGGCUUCAUCUUCCAACAGAGGAUUGAGCAUCA
# B9: chr11:30000241:30000242:-_ENSMUSG00000020315_ENSMUST00000011877|mus_mus|motif|central (ssRNA)
# RNA: GGGAGUUCUACAGUCCGACGAUCUAUUUCCAACACAGCCUCACAAAAUUGAGGAACAGUUUAAAUACUGAGAUCGGAUCGGUAUAAUUUCAUUAAAAAAAUCUGGCCUUCCCUCUGUACCUCAAACUUUUUAAACUUGGAGAUCAACAGAGGAUUGAGCAUCA
# B10: chr3:180328061:180328062:+_ENSG00000163728_ENST00000412756|hu_hu|FALSE|FALSE (ssRNA)
# RNA: GGGAGUUCUACAGUCCGACGAUCGCUCAUGUCUACUGAAAUCACGUGAUCCAGAGUGAGCGUAUUUUUUGUAUUUCUCAACUGACUUCCAAGAGUAUUCUGAGCUUGCUGGUGAGGUAGAAUGCCUCACAGAACCUGGUUCCCCAACAGAGGAUUGAGCAUCA
# B11: chr7:75932113:75932114:+_ENSG00000106211_ENST00000248553|hu_hu|hu_hu_hu_mus_False|38_48 (ssRNA)
# RNA: GGGAGUUCUACAGUCCGACGAUCCUGCGACCACUCAUCGGGCAACCGGGGCACCCCGAAAGCUUGAUCGAAGAGGCGGCUGUGUGCGUACCAGUCGCGGAAGGGGUGUUCCCAGCUCGGGCUCCGCAGCAGCGAGAAGGGCACCAACAGAGGAUUGAGCAUCA
# B12: chr15:31439531:31439532:-_ENSMUSG00000039100_ENSMUST00000090227|mus_hu|FALSE|FALSE (ssRNA)
# RNA: GGGAGUUCUACAGUCCGACGAUCAAAUCUGUGCUUGCAUAAUUCACAGUAUUCUUUUCGACUGUGUUUCAGCCAUUGAACUAAGCAUUCUUGAUGGAUAAACUUAAUACUGCCAGUACAUACACAAGGAUGAUAAAGCGGUUUCAACAGAGGAUUGAGCAUCA
# B13: chr15:12753431:12753432:-_ENSMUSG00000022195_ENSMUST00000057256|mus_hu|FALSE|FALSE (ssRNA)
# RNA: GGGAGUUCUACAGUCCGACGAUCUGGAUGUGAGUCGAAAUGUAAAAAACUUACAUUACUGGCAGGAAGAUGCUUUGAGCCUAUGGCCCGGUAUAUAAAGGGUAGAACCUCCUGAUGAUCCUCCACCACCCACACUGGGAGCUUCAACAGAGGAUUGAGCAUCA
# B14: chr1:180793972:180793973:+_ENSG00000143324_ENST00000367589|hu_hu|FALSE|FALSE (ssRNA)
# RNA: GGGAGUUCUACAGUCCGACGAUCGAGUACAUGGUUUACUCCAGCCUGUCUCCAACCAUACGUGUUGAUGCCCAGUAGAAAAAGGAAUUCAAUCAGAAGAAAGCCACCCCGAUAGAUUCUUAUCAAGGGCCAUAUACUUCUAUCCAACAGAGGAUUGAGCAUCA
# Biological target: T1, UNK ZnF1-3 (human, UniProt Q9C0B0 31-174)
# T1 sequence: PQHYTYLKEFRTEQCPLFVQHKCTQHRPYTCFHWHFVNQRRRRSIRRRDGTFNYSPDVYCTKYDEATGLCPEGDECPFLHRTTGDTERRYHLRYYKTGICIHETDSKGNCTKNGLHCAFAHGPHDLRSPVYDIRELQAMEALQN
# Assay: nsRBNS (natural sequence RNA bind-n-seq); RBNS binding buffer (assumed for nsRBNS): 25 mM Tris pH 7.5, 150 mM KCl, 3 mM MgCl2, 0.01% Triton X-100, 500 ug/ml BSA, 20 U/ml SUPERase-In, 4 C; UNK is unkempt and MSI1 is Musashi-1; names of the RNAs are library labels; protein concentration not given here; high values mean tight binding
row,Binder,binding signal [enrichment R]
1,B1,1.31
2,B2,1.17
3,B3,0.174
4,B4,1.22
5,B5,0.951
6,B6,0.893
7,B7,0.789
8,B8,0.684
9,B9,1.94
10,B10,0.88
11,B11,0.676
12,B12,0.866
13,B13,1.22
14,B14,0.777
